Test results from the supplement of paper PMC7826260.
This is one part of the list. One pool of 16,384 single-stranded DNAs met each Rep nickase domain in vitro for 1 h at 37 °C with 3 µM enzyme; only the middle of the 90-letter strands is printed. Uncut reads are compared with the no-enzyme pool on a log2 scale; uncut sequences lie near 0, cut ones below; no hit call is given. Counts are relative to all reads; values above 0 arise when much of the pool is cut.

Assays:
Assay in all cases: uncleaved DNA left, log2 of reads against the no-enzyme library (log2 ratio); higher = less cleavage (more negative = more Rep cleavage of the k-mer); sequences stand for … in CTCGTCCG…ACCGGAGA
[1] = tested on: T1, Rep nickase domain of Muscovy duck circovirus
T1 sequence (Rep 1-111, printed without the tag): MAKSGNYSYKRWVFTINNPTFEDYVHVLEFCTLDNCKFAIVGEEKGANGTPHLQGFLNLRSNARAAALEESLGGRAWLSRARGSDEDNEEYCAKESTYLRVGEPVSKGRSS
Description: (§1)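 A pool of 90-nt single-stranded DNAs with seven random bases just before the constant AC of the nick site (name = the seven bases) was cut by 3 µM recombinant His6-SUMO-tagged Rep nickase domain (300 nM DNA, 50 mM HEPES pH 8.0, 50 mM NaCl, 1 mM MnCl2, 1 h, 37 °C, three replicates). Uncut DNA was amplified and sequenced.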

[2] = tested on: T2, Rep nickase domain of banana bunchy top virus
T2 sequence (Rep 1-94, printed without the tag): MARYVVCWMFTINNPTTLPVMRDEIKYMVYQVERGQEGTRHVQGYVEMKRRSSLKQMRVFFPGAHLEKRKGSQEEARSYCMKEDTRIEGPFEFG
Description: as §1

[3] = tested on: T3, Rep nickase domain of cabbage leaf curl virus
T3 sequence (Rep 1-116, printed without the tag): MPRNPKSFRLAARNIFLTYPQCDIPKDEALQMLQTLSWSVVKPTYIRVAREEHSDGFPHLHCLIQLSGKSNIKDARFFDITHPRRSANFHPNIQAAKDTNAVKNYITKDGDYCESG
Description: as §1

[4] = tested on: T4, Rep nickase domain of chickpea chlorotic dwarf virus
T4 sequence (Rep 1-124, printed without the tag): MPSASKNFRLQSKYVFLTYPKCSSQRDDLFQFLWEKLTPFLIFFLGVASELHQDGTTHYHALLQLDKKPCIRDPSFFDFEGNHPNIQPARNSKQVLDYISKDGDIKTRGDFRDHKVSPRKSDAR
Description: as §1

[5] = tested on: T5, Rep nickase domain of faba bean necrotic yellows virus
T5 sequence (Rep 1-98, printed without the tag): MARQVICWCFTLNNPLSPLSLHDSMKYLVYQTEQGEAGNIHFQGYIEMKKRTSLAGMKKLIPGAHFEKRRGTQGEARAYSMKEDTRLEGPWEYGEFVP
Description: as §1

[6] = tested on: T6, Rep nickase domain of maize striate mosaic virus
T6 sequence (Rep 1-117, printed without the tag): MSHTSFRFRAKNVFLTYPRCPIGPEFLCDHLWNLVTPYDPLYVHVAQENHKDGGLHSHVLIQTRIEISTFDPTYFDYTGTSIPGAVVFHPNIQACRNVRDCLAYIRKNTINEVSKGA
Description: as §1

[7] = tested on: T7, Rep nickase domain of porcine circovirus 2
T7 sequence (Rep 2-116, printed without the tag): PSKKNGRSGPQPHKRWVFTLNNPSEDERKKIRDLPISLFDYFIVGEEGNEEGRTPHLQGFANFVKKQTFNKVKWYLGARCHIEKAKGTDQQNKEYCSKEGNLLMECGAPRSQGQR
Description: as §1

[8] = tested on: T8, Rep nickase domain of tomato golden mosaic virus
T8 sequence (Rep 1-124, printed without the tag): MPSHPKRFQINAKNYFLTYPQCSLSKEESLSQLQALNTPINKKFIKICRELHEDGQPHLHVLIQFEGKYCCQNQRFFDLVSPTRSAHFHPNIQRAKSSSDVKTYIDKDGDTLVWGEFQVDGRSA
Description: as §1

[9] = tested on: T9, Rep nickase domain of tomato yellow leaf curl virus
T9 sequence (Rep 1-136, printed without the tag): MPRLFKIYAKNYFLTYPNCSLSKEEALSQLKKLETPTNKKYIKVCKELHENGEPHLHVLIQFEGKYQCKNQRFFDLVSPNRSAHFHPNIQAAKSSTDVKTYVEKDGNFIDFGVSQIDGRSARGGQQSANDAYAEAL
Description: as §1

[10] = tested on: T10, Rep nickase domain of wheat dwarf virus
T10 sequence (Rep 1-137, printed without the tag): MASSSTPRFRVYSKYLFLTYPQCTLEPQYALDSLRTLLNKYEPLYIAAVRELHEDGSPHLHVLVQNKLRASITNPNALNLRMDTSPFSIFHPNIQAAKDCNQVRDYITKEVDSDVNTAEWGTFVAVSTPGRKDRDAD
Description: as §1

Sequence	uncleaved DNA left (log2) [1]	uncleaved DNA left (log2) [2]	uncleaved DNA left (log2) [3]	uncleaved DNA left (log2) [4]	uncleaved DNA left (log2) [5]	uncleaved DNA left (log2) [6]	uncleaved DNA left (log2) [7]	uncleaved DNA left (log2) [8]	uncleaved DNA left (log2) [9]	uncleaved DNA left (log2) [10]
CCAATTT	-0.0281	-0.0583	-0.157	-2.51	0.0292	-0.789	-0.238	-0.0626	-0.0895	-0.234
GGTTTTG	0.263	0.15	0.227	0.338	0.0732	0.23	0.222	0.229	0.151	0.187
CGGAGCT	0.0717	0.16	0.217	0.277	0.11	0.227	0.0465	0.102	-0.0125	0.109
ATTCCAG	0.0714	0.134	-0.204	-0.0891	0.114	-0.856	-0.078	0.0954	0.273	0.00706
GTTTAAC	0.0568	0.142	0.335	0.684	0.0119	1.71	0.0688	0.123	0.0829	0.067
GATGCAG	-0.0681	-0.0961	-0.602	-0.408	-0.00838	-0.899	-0.0119	-0.00551	0.0441	-0.0441
ACCCTAG	0.085	0.0257	-0.581	0.078	0.172	-0.711	0.149	0.0272	0.105	-0.0545
TCACGAG	-0.0543	0.04	0.127	0.251	-0.00663	-0.912	0.0773	0.0135	0.00346	-0.00375
TGGGAGG	-0.0181	-0.0591	0.498	1.24	0.083	1.59	0.148	0.1	-0.0959	0.0499
TGGGAAT	0.133	0.149	0.772	2.04	0.126	2.25	0.139	0.11	0.0272	0.222
AGCTTCG	-0.0549	0.0103	-0.703	-0.491	-0.0977	-1.09	0.125	-0.0518	0.0974	-0.0394
GTTGTGA	0.062	0.00579	-0.00511	0.485	-0.0161	0.216	0.0675	0.0622	-0.0122	0.0141
TGGGACG	-0.0829	0.0629	0.719	1.67	-0.144	1.82	0.144	0.0484	-0.0227	0.11
ACTGCAT	-0.0703	-0.0791	-0.272	-0.257	0.0554	-0.742	-0.0575	-0.0437	-0.0729	-0.129
GCGCTCA	-0.148	-0.106	-0.00884	-0.188	-0.118	0.0656	-0.16	-0.112	-0.0359	0.0365
